From article PMC10726135 come the findings set out here.

This is one part of the list. At the low end of the ranking the order means little. Measured with an extract: partners may take part in the binding.

In the assay the target is T1, HNF4alpha8 (COS-7 nuclear extract) (UniProt P41235-5).
T1 sequence: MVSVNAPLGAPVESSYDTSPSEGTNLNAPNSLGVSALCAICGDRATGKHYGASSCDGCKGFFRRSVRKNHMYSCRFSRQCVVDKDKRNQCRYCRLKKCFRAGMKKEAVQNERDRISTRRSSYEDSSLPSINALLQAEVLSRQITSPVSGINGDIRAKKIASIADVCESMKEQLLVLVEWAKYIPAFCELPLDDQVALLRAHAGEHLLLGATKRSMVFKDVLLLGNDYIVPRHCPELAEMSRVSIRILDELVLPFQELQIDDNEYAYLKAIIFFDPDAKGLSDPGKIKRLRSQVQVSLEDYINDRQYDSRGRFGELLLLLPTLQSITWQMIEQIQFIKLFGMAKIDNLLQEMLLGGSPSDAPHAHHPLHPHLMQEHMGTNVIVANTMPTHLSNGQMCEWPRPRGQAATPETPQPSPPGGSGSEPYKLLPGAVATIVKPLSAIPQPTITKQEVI
The assay is described as follows: protein-binding microarray. The note with it: COS-7 nuclear extract on double-stranded Agilent 4x180k PBM; binding buffer, salt, pH and temperature not given; high values mean tight binding; double strand, one strand shown; sequences stand for … in …GCCTAGGGAGATTAGAGTATCGGTCGA
Regarding TCTGGGTTAAACGTGCAGCAATAGGTCAGA, the binding signal (log2 normalized intensity) was 2.04.

Take TGACCTTTGAAACTTACATTCTAAAGCAGA: the binding signal (log2 normalized intensity) stood at 5.15.

As for TACCATGTGTTGGCACTTTGGACTTGAGAA, the binding signal (log2 normalized intensity) worked out at 5.4.

Regarding ACAAGGTGTGTTTGAGCAGGGGTGAACAAA, the binding signal (log2 normalized intensity) is -0.257.

Turning to GTGTCAGTCCAGAGTTTGTGGCTCCATACT, the binding signal (log2 normalized intensity) came out at 0.463.

CAACTAGGCCTGAAATTTGGCCTGCTGAGC: the binding signal (log2 normalized intensity) was -0.424.

Consider ACTTTGCCCTTTTTTTCTCTCCCCTTTTAA, for which the binding signal (log2 normalized intensity) came to 2.63.

As for ATAACACTATTTGATGAGTCTTAGAGTCCA, the binding signal (log2 normalized intensity) was 2.77.

As to AATATGTGGACTTCAAAGGTACTTATCAGA, the binding signal (log2 normalized intensity) amounted to 1.07.

Consider ACCGTCTTGTGGATCCTTGGAGGACCTTGG, for which the binding signal (log2 normalized intensity) turned out to be 2.42.

On to CCCCCTATGTAAAGGCCTTTGAAGCTTGAA, for which the binding signal (log2 normalized intensity) was 2.64.

Turning to CCTCAAATTACAAAAGGAGTTGGGGGACAG, the binding signal (log2 normalized intensity) was -1.44.

CCACATCGAAGGCCAAGGGATTTCAGTGCC: the binding signal (log2 normalized intensity) is -1.26.

Consider AAGGAGCTTGGGAAGACAGATGTGATATTC, for which the binding signal (log2 normalized intensity) turned out to be 0.00435.

CTTCTCACCACCTCTGCTGCGATCACCCAG: the binding signal (log2 normalized intensity) was -0.978.

For the sequence GCATATCTCTAGATCTCAGTTGGTCCAAGG, the binding signal (log2 normalized intensity) came to 1.89.

Consider TTATCTTCACATTCCATCATCACGGTGGAC, for which the binding signal (log2 normalized intensity) came out at 1.71.

Regarding CGGGGATGGCAGACGGGGCTCTCAGAATCT, the binding signal (log2 normalized intensity) was -1.32.

As for CAGCTGGGGCCACCTTTTCAGCTTCCTCCT, the binding signal (log2 normalized intensity) is -1.23.

GCTCCTGTTCCTTTGTTACACTGGCTGCCC: the binding signal (log2 normalized intensity) was 2.08.

As to CCTTTGACTCATTATCCCCCGCAACTATTT, the binding signal (log2 normalized intensity) turned out to be 3.15.

TAAGCACTTGTGGTATGTTTGGATTGGGCA: the binding signal (log2 normalized intensity) is 1.52.

For the sequence ATGACTCTCTTATAGGTGTTTATAAAGTTG, the binding signal (log2 normalized intensity) was found to be 1.68.

In the case of GACTAGGCACAGGAACCTGTTTTACAGGAC, the binding signal (log2 normalized intensity) was -1.2.

Take TAGACAAACAGCAATAGCAAGACTGCAAAA: the binding signal (log2 normalized intensity) was -1.47.

As to CTTCATAGTGGTTTGACTTTTTTTTTTTTT, the binding signal (log2 normalized intensity) amounted to 2.38.

Turning to CATCCACATGGGCGTCACCAACCAGCCCTC, the binding signal (log2 normalized intensity) came to 3.3.

Regarding GACAGATGAAAGCATATTTGGCCACATCCT, the binding signal (log2 normalized intensity) was -1.32.

Consider GTTCTGCAGACTCCCTAGAAGAGTGAACCT, for which the binding signal (log2 normalized intensity) is 2.52.

In the case of TGGATCAGCACTGGGTGGGGATAAGAAAAG, the binding signal (log2 normalized intensity) is -1.28.

Take GCTGCATGTCATGACCTTCATCAATCAGCC: the binding signal (log2 normalized intensity) amounted to 1.75.

Regarding GATAAGAGAAGTTGCTCTTTACACCATTGC, the binding signal (log2 normalized intensity) is 1.65.

As for GGTGAGATAAGAAGACTCCAGGGGACTGCC, the binding signal (log2 normalized intensity) was -1.27.

GCTGCGCGGGGCCTCCCAGTGGTATGCCTC: the binding signal (log2 normalized intensity) is -1.28.

For the sequence CTTTGGACTTTCAAAAGTTAAGGTCAAGAC, the binding signal (log2 normalized intensity) turned out to be 2.78.

As for ATAAAACCAGTCAGGCAAACAACAGGCATC, the binding signal (log2 normalized intensity) was -1.31.

With GGAAAAGATTAGATTGCTCAGAGGCACAGT, the binding signal (log2 normalized intensity) is -1.3.

Turning to GAGCCCTTAGGGTCAATGGGACATTGCATT, the binding signal (log2 normalized intensity) came out at 2.22.

For the sequence TTCCCGCCCAAGGAGACAGGCTTTGAGCAT, the binding signal (log2 normalized intensity) is 0.0316.

In the case of AAGGCAGAGCACTAAATCTCTCCTAGAGAA, the binding signal (log2 normalized intensity) is -1.37.

As to TTGGTTGTTCTGTTTAACAGAGATTTGCAG, the binding signal (log2 normalized intensity) came out at 1.

As for CACTGACTAAAGCAAGTCAGATGGCCAAAG, the binding signal (log2 normalized intensity) was -1.27.

As to CACAGAAGTCTTTCCCTGCCAGTTCCATGT, the binding signal (log2 normalized intensity) stood at 1.23.

For the sequence ACATAGCAGGCATACCAGGCAGAGGGTTAA, the binding signal (log2 normalized intensity) is -1.19.

For TTGCGGATAGATATGTTGAAGTGACTAAAT, the binding signal (log2 normalized intensity) was -1.17.

Regarding ATAATGCATACGCTAGCTTTCTGGTCTTTG, the binding signal (log2 normalized intensity) was found to be 0.696.

For ACATTCTTTCTGCATCGCAGTCGCCTGCAA, the binding signal (log2 normalized intensity) was -1.33.

As for CTCTCCCAGCGGGTCATTAATTCCCAGGAA, the binding signal (log2 normalized intensity) turned out to be 0.386.

For TTTTACAATGCAAACCTAACAGGCTGTAAG, the binding signal (log2 normalized intensity) was -1.4.

Regarding GATAATAGTGGCTGAAAGTACTGGCCAGAT, the binding signal (log2 normalized intensity) amounted to 0.216.

With GCTTTTGTCATGACCTTCGCTCTTGATGGG, the binding signal (log2 normalized intensity) is 4.62.

On to CTCATAACTAGGGTTCCAAGACCAAGCAAG, for which the binding signal (log2 normalized intensity) was -1.29.

As to GCCTTGCCGTGCTGCGGTGGGCTCCACCCA, the binding signal (log2 normalized intensity) was -1.42.

TGCACAAATTTCAGATATCTGAATGTACCT: the binding signal (log2 normalized intensity) is 1.93.

With TGTTCATTATGTCTTATCTACCTGGCTTGT, the binding signal (log2 normalized intensity) was 1.66.

For the sequence CGGGAAAGGCCGGAGGGCGGGGCGGGGCAG, the binding signal (log2 normalized intensity) is -1.34.

Regarding GGCCCAGGGACTCAGGCACACAAAAAAAAC, the binding signal (log2 normalized intensity) was -1.32.

As to TCTGTGGTCAGGGCCTTTCCAGCAAATCCC, the binding signal (log2 normalized intensity) is -1.27.

Regarding GTACAGCCTGTGCTAAGTTTCAAAGAGGAG, the binding signal (log2 normalized intensity) is -1.19.

On to ACACTGGGAGGCAAATCTCTTGGTCATGGA, for which the binding signal (log2 normalized intensity) is 0.515.

In the case of CCCTCAGCAACTGCAAGGCTGACCCGTGAA, the binding signal (log2 normalized intensity) came out at 2.14.

Take TTGCTAGATTCTTTCTTCCTTTTGAAAAAG: the binding signal (log2 normalized intensity) is -0.907.

On to AAGGCAAGATCATTCCAGGAATGTTCAAGA, for which the binding signal (log2 normalized intensity) is -0.959.

Regarding TGGGCCCAGATATACAAGAAAGAAAGAATG, the binding signal (log2 normalized intensity) is -0.471.

GACTCCAAAGGGCTGGAGACTGAGTAACTA: the binding signal (log2 normalized intensity) was -1.45.

With GGGGCATCGGTCTTTACACATCTGTTAGGA, the binding signal (log2 normalized intensity) came out at 0.636.

In the case of TGGGCCACCTGAGACAGTTTATGCCAGCAA, the binding signal (log2 normalized intensity) is -1.17.

GTGTACTGGGCAGATAACAGCGAACATGAG: the binding signal (log2 normalized intensity) was -1.14.

Take TCCTATCACCATATCCCTGAGAGGCCAGTT: the binding signal (log2 normalized intensity) was 0.554.

Turning to AGCAACAGCTGCAGTGAAATTCTGGCCAAC, the binding signal (log2 normalized intensity) was -1.27.

Consider AGTTCAGAGAGGAATCGGCAGTTTGGGCCT, for which the binding signal (log2 normalized intensity) is -0.873.

TGGGCAGGGGCATCCTCATTGCCTCTGGGC: the binding signal (log2 normalized intensity) is -1.05.

As to CCCAGCCAGGAGCAGAAAGGAGGCAGAGAC, the binding signal (log2 normalized intensity) was -1.23.
